# The list shows a part of the results.
# Target: T1, OsWOX13 (Oryza sativa, UniProt Q5QMM3 1-267)
# T1 sequence: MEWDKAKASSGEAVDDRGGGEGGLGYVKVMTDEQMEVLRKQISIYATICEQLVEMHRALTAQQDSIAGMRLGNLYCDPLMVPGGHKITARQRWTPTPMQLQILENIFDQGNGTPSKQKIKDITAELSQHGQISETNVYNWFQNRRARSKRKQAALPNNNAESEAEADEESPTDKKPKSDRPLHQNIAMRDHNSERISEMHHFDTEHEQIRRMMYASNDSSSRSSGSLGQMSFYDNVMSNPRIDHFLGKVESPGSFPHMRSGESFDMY
# Assay: protein-binding microarray (RPBM); PBS, 2% BSA, 51.3 ng/ul salmon testes DNA, 50 uM zinc acetate, 200 nM TF, 25 C, 1 h; high values mean tight binding
# Settings: protein: recombinant; tags: N-terminal polyhistidine and DsRed monomer fusion (pET32a); label: CyDye5-dUTP incorporated in the synthesized complementary strand; 3' TTTTT single-stranded linker to array surface; dsDNA, one strand shown
# Outline: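 The binding signal is fluorescence intensity per feature, in arbitrary units, read on an Axon 4000B scanner. Polyhistidine- and DsRed-tagged transcription factors (N-terminal fusions) from E. coli BL21-CodonPlus were purified on Ni–NTA and applied at 200 nM for 1 h at 25 °C to a double-stranded, BSA-blocked custom Agilent array in buffer with 50 µM zinc acetate.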
row,Sequence,binding signal
1,ATACACCAGTTGATTATAATGACAGTGATATTATGGTGGACGGAGTCACCTAGTGCAG,17800 fluorescence intensity (a.u.)
2,TTACGTTCCTTGATTCAATCACCATAATTCGTCCTACTTTCGGAGTCACCTAGTGCAG,12100 fluorescence intensity (a.u.)
3,TTCCTAAATATACAAATTTTCAAATTTTCCGTCGTGTCGTCGGAGTCACCTAGTGCAG,3680 fluorescence intensity (a.u.)
4,TACATCGCGTAATCAATTGAATGTTTTCTTTTATGGAGATCGGAGTCACCTAGTGCAG,6280 fluorescence intensity (a.u.)
5,TGGCAATCACAGGATTAATGCTCATTATATTTGGGAATACCGGAGTCACCTAGTGCAG,26000 fluorescence intensity (a.u.)
6,ATCTCATAAATTTGTCATCCTTAAGAGCTTGGAACAGTTACGGAGTCACCTAGTGCAG,3610 fluorescence intensity (a.u.)
7,CACTACCCTGATCTGATTGAAATGTCGGGTTCAACCCGATCGGAGTCACCTAGTGCAG,22100 fluorescence intensity (a.u.)
8,ACTTGATTATTGAAGGAGGTAGTACTGCCTGCTGACTACTCGGAGTCACCTAGTGCAG,33700 fluorescence intensity (a.u.)
9,TAATTGTACAGATTGCGACTAATTTGCGAGACAAATCTTTCGGAGTCACCTAGTGCAG,10900 fluorescence intensity (a.u.)
10,GGTCTTAATTAATTACTAACTAATATATGTTGCCTCTCCTCGGAGTCACCTAGTGCAG,42800 fluorescence intensity (a.u.)
11,ACAAAATTGTAAAGTATTAACGAAGGCTAACCGGACGGTGCGGAGTCACCTAGTGCAG,3360 fluorescence intensity (a.u.)
12,ATGGACAGATTGAAACATTAAGGATTAAATTGAGTCTCAGCGGAGTCACCTAGTGCAG,32800 fluorescence intensity (a.u.)
13,CTGCTGATGGATGCGTATAATAAGGATGTAAGTGGCTAACCGGAGTCACCTAGTGCAG,8300 fluorescence intensity (a.u.)
14,ATATATTGACAAGGCAATGACATAGATAGCTAGACATATCCGGAGTCACCTAGTGCAG,16200 fluorescence intensity (a.u.)
15,TCTGTTGATTGGTCCATCATATTTTATGGAATGTGCCAATCGGAGTCACCTAGTGCAG,49400 fluorescence intensity (a.u.)
16,TTTTCGTGAATTTGATGATTACGATTTTACGAATGCTGACCGGAGTCACCTAGTGCAG,8750 fluorescence intensity (a.u.)
17,TTTCAGATTGGAAATCTCGTGCTTGTTGTTAAAACACCTGCGGAGTCACCTAGTGCAG,22000 fluorescence intensity (a.u.)
18,TTTGAATGTGATATGATGTGATGAAAAGTTAAAAGTTTGGCGGAGTCACCTAGTGCAG,3430 fluorescence intensity (a.u.)
19,TTTGATGAACAAACAGAGATATCACATTGTACTATGGAATCGGAGTCACCTAGTGCAG,5530 fluorescence intensity (a.u.)
20,GGTCATCGTAATCAGTTTATTTGCTCGGAGACAAATCACACGGAGTCACCTAGTGCAG,5440 fluorescence intensity (a.u.)
21,ATATATATATATATATATATATATAAGGCTTGTCTTCTGCCGGAGTCACCTAGTGCAG,22100 fluorescence intensity (a.u.)

row,Sequence,binding signal
1,CCTAATTTGGAACCTTAACCGTGGGATTTGACTAAAATAACGGAGTCACCTAGTGCAG,8390 fluorescence intensity (a.u.)
2,AATATTTATGTTAATTATATATAGCTAATTATGATAATAGCGGAGTCACCTAGTGCAG,18800 fluorescence intensity (a.u.)
3,AATCCAATTCCCACAATTAAGTGTTCTTAACTCACAAACTCGGAGTCACCTAGTGCAG,4040 fluorescence intensity (a.u.)
4,TCCCTGCATTAACTGATCAACACAACCGAGATGTTTGACACGGAGTCACCTAGTGCAG,3510 fluorescence intensity (a.u.)
5,GATTGATTTTCTGATGTTTCCCCATGAGTCCATGACATGACGGAGTCACCTAGTGCAG,8870 fluorescence intensity (a.u.)
6,AAAAGGGTTTGATTTCTATCAATTCCTTTAAAATCTATGGCGGAGTCACCTAGTGCAG,3320 fluorescence intensity (a.u.)
7,CAATCACATTAAATTACGAAAATTAATTCTCTGACCTGAGCGGAGTCACCTAGTGCAG,17100 fluorescence intensity (a.u.)
8,CCAATTTATGATCCAATCACACTGTTGTATTCATTATAATCGGAGTCACCTAGTGCAG,10700 fluorescence intensity (a.u.)
9,TGCAGGTAAACAAATGATTGATATTATTCGATCTCTACTTCGGAGTCACCTAGTGCAG,32000 fluorescence intensity (a.u.)
10,GGGTGATTTGAAGGACACTTTCCTGTTTAAGAAGTTAACACGGAGTCACCTAGTGCAG,26700 fluorescence intensity (a.u.)
11,GATATTATACCAATTAATTATTGGACTTCTGGAGGTAAAACGGAGTCACCTAGTGCAG,11800 fluorescence intensity (a.u.)
12,TCAGTAATATAGTAATTACCGTATTTCTAAATATATTATTCGGAGTCACCTAGTGCAG,4630 fluorescence intensity (a.u.)
13,CTAACAAGTACACCTTGATTGAAGTGGATTTTATTATTACCGGAGTCACCTAGTGCAG,9250 fluorescence intensity (a.u.)
14,TGAGACGAATGGAGTAATTATGTTTCTTCACTAATTAAGCCGGAGTCACCTAGTGCAG,5150 fluorescence intensity (a.u.)
15,CGAAAGCAGTTAACTTAACTTTACCCCGTTCCCCTGCATTCGGAGTCACCTAGTGCAG,3200 fluorescence intensity (a.u.)
16,AATCAACTTTAAATTTAACTTTGACAATTTAAATTCTGTACGGAGTCACCTAGTGCAG,12500 fluorescence intensity (a.u.)
17,TGCTTCTCTTTCGGTGATTGGGTACTACGGGAAGGCGATCCGGAGTCACCTAGTGCAG,7610 fluorescence intensity (a.u.)
18,CTTATTAACTCAGAGTCAATTTCTTCGATTGAACATATTGCGGAGTCACCTAGTGCAG,6190 fluorescence intensity (a.u.)
19,TATGTCACATTCTAAATTGATAGGAGGGTTTGACCATATACGGAGTCACCTAGTGCAG,11300 fluorescence intensity (a.u.)
20,GGTGAATCTACAATGAGATAATTACTACAAATAGACACTGCGGAGTCACCTAGTGCAG,5140 fluorescence intensity (a.u.)
21,TTGATTGCGAATGATTGGAGCTGGTTGCTGTTGCTAGATCCGGAGTCACCTAGTGCAG,57800 fluorescence intensity (a.u.)
